Measurements: PubChem BioAssay AID485281 (National Center for Advancing Translational Sciences (NCATS), 2010)
Screen size: about 350,000 compounds; about 260 (0.074%) were called active. Inconclusive results, whose numbers are uncertain, are shown with a selection of clear calls. Calls follow the shape of the dose curve; as a rule, active = well fitted inhibition curve with a large enough effect; inconclusive = small, poorly fitted or top-dose-only effect; inactive = no such curve, though single readings can be large or run the other way. Where the call is inconclusive, the potency comes from a doubtful curve fit.

The compounds below were run against Ferritin light chain (Equus caballus) (UniProt P02791) (assay: qHTS Assay for Identification of Novel General Anesthetics). Settings: apoferritin/1-aminoanthracene competitive binding, fluorescence; activity change, negative = displacement: at 77.5 µM (top of the series).
Method in brief: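 Concentration-response curves derived by four-parameter Hill fitting of normalized fluorescence, where compounds displaced 1-AMA from 10 uM horse apoferritin following a brief 10 min room-temperature incubation; propofol titration acted as positive control.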
% is scaled to controls: 0 for no effect and ±100 for the full control effect; potency is read from the fitted curve at half-maximal effect; tags tell the direction and shape of the fitted curve.
Also: nearly all actives have a fitted effect of over 20% in size.

UniProt P02791, sequence (P02791 whole entry, looked up): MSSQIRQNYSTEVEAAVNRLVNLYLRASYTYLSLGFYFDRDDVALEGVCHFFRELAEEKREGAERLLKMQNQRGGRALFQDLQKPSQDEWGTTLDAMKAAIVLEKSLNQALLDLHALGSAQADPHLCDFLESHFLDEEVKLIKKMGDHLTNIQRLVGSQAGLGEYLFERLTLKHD

Potency, inconclusive:
CCCCCC(=O)Nc1cccc(C2=NOC3(C2)C[C@@H](C(N)=O)N(C(=O)c2ccc(Cl)cc2)C3)c1 (some centres undefined) 50.1 µM [inhibitor, single point], Cc1cc(C(F)F)n2ncc(C(=O)NCCc3ccc(Cl)cc3)c2n1 22.4 µM [inhibitor, partial curve], COc1ccc(NC(=S)NC(NC(=O)/C=C/c2ccccc2)C(Cl)(Cl)Cl)cc1 (centres undefined) 11.2 µM [inhibitor, partial curve], C/C(=N\Nc1nnc(-c2ccccc2)c(-c2ccccc2)n1)c1cccc([N+](=O)[O-])c1 20 µM [inhibitor, partial curve], CCCN1CCN(c2nc(-c3cccs3)nc3ccccc23)CC1 22.4 µM [inhibitor, partial curve], COc1ccc(-n2c(CN3CCN(Cc4ccccc4)CC3)nc3ccc([N+](=O)[O-])cc3c2=O)c(OC)c1 10 µM [inhibitor, partial curve], COc1ccc(OCC(O)CNC(=O)/C=C/c2cccc([N+](=O)[O-])c2)cc1 (centres undefined) 28.2 µM [inhibitor, partial curve], COc1ccc(N=Cc2c(O)ccc3ccccc23)cc1 31.6 µM [inhibitor, partial curve], O=C(CSc1nc2ccccc2s1)NNC(=S)Nc1ccc(Br)cc1 20 µM [inhibitor, partial curve], NNC(=O)c1cccc(COc2ccc(Br)cc2)c1 35.5 µM [inhibitor, partial curve, poor fit], CCc1nc2ccc(C(=O)N3CCN(c4ccc([N+](=O)[O-])cc4)CC3)cc2nc1CC 17.8 µM [inhibitor, partial curve], NC(=O)C1CCN(CCC(=O)Nc2ccc(Br)cc2)CC1 35.5 µM [inhibitor, partial curve], c1ccc2nc3c(cc2c1)CCCCCC3 39.8 µM [inhibitor, partial curve], Cc1cccc(N2C(=O)C(Cl)=C(N3CCOCC3)C2=O)c1 14.1 µM [inhibitor, partial curve], Cc1ccc(O)c(N=Cc2sc3ccccc3c2Cl)c1 20 µM [inhibitor, partial curve], COc1cc(S(=O)(=O)NCc2ccc3c(c2)OCO3)ccc1Cl 35.5 µM [inhibitor, partial curve], Cc1cc(NC(=O)CSCc2ccccc2C)no1 25.1 µM [inhibitor, partial curve], Cc1cccc(/C=N\NC(=O)c2sccc2-n2cccc2)c1 14.1 µM [inhibitor, partial curve], CCN1CCc2c(OCC(=O)N3CCc4ccccc43)cccc2C1=O 35.5 µM [inhibitor, single point], O=C(COc1ccc2ccccc2c1)NNC(=O)[C@@H]1CCCC[C@@H]1C(=O)O 31.6 µM [inhibitor, partial curve], COC(=O)c1[nH]c2ccccc2c1NC(=O)CN1CCCCCC1 25.1 µM [inhibitor, partial curve], CCn1c(/C=C2/C(=O)N(C)c3ccccc32)nc2ccccc2c1=O 17.8 µM [inhibitor, partial curve], O=C(c1ccccc1)c1sc(N2CCOCC2)nc1-c1ccccc1 39.8 µM [inhibitor, partial curve], Cc1ccc(CSCC(=O)N/N=C/c2sccc2C)cc1 31.6 µM [inhibitor, partial curve], Brc1ccc(NC2=Nc3ccccc3CC2)cc1 25.1 µM [inhibitor, partial curve], COc1cc(C2C(C(=O)c3ccc(C)o3)=C(O)C(=O)N2CCc2ccccc2)ccc1O (centres undefined) 20 µM [inhibitor, partial curve], CCCCNC(=S)N(C)N=C1CCC(c2ccccc2)CC1 (centres undefined) 35.5 µM [inhibitor, partial curve], OCCN(Cc1ccccc1)C(=S)Nc1ccc(Cl)cc1Cl 31.6 µM [inhibitor, single point], O=C(NN1C(=O)c2ccc(-c3ccc4c(c3)C(=O)N(NC(=O)c3cccnc3)C4=O)cc2C1=O)c1cccnc1 35.5 µM [inhibitor, single point], CCOC(=O)Cn1c(=N)n(Cc2ccc(C(C)(C)C)cc2)c2ccccc21 14.1 µM [inhibitor, partial curve], Clc1cccc(Cl)c1/C=N\Nc1nccs1 25.1 µM [inhibitor, partial curve], Cc1ccc(C(=O)C2CCN(CC(=O)Nc3ccc4c(c3)OCCO4)CC2)cc1 50.1 µM [inhibitor, partial curve, poor fit], Cc1ccc(SCc2ccc(C(=O)N3CCCC3)cc2)cc1 31.6 µM [inhibitor, partial curve], O/C(=C\c1ccc2ccccc2n1)c1ccc(O)cc1O 35.5 µM [inhibitor, partial curve], O=C(O)C1CC(c2ccccc2)=Nc2ccccc2S1 (centres undefined) 14.1 µM [inhibitor, partial curve], O=C(CCc1ccc(S(=O)(=O)NCCc2ccccc2)cc1)Nc1ccc2c(c1)OCO2 25.1 µM [inhibitor, partial curve], CC(=O)c1cnc(Nc2cccc(C)c2)s1 20 µM [inhibitor, partial curve], CC(NC(=O)/C(C#N)=C/c1cccs1)c1ccccc1 (centres undefined) 25.1 µM [inhibitor, partial curve], N#C/C(=C\c1ccccc1[N+](=O)[O-])C(=O)NC1CCCCC1 25.1 µM [inhibitor, partial curve], COc1cc(S(=O)(=O)NC2CCCCC2C)ccc1F (centres undefined) 39.8 µM [inhibitor, single point], CC(C)(C)c1ccc(O)c(N=Cc2cc3c(cc2[N+](=O)[O-])OCO3)c1 31.6 µM [inhibitor, partial curve], Cc1ccc(-n2c(-c3ccc(Br)cc3)c[n+]3c2CCc2ccc4cccnc4c2-3)cc1 11.2 µM [inhibitor, partial curve], O=C(Nc1cccc2ccccc12)c1onc2c1CCCC2 31.6 µM [inhibitor, partial curve], COc1ccccc1CN1CCC(CNC(=O)c2cnn(-c3ccccc3Cl)c2C2CCN(C(=O)OC(C)(C)C)CC2)CC1 11.2 µM [inhibitor, partial curve], CCCCN(C(=O)C1CCC(CNS(=O)(=O)c2cccc3nsnc23)CC1)c1ccccc1 (centres undefined) 20 µM [inhibitor, partial curve], COc1ccccc1NC(=O)c1cc(Br)ccc1Cl 22.4 µM [inhibitor, partial curve], Cc1cc2oc(=O)c(CC(=O)NCCc3ccccc3F)c(C)c2c2occ(C(C)(C)C)c12 3.16 µM [inhibitor, partial curve], O=C(NC12CC3CC(CC(C3)C1)C2)c1cc(F)c(F)cc1Cl 14.1 µM [inhibitor, partial curve]

Potency, inactive:
COc1ccc2cc([C@H](C)C(=O)O)ccc2c1, Cc1noc(C)c1COC(=O)c1ccccc1Oc1ccccc1, Cc1cc(C)nc(N/N=C2/CCCC/C2=C\c2ccccc2)n1, COc1ccc(CC2(CO)CCN(Cc3cnn(-c4ccccc4)c3)CC2)cc1, CCn1ccc2cc(S(=O)(=O)N3CCCN(C(=O)Nc4ccccc4F)CC3)ccc21, COc1cc(NC(=O)c2cccs2)c(OC)cc1NC(=O)Cc1ccccc1, CN(C)CCCN(C(=O)CCOc1ccccc1)c1nc2ccc(F)cc2s1, CCSc1nn2c(=O)c3ccccc3nc2s1, Cn1c2ccccc2c2ncn(Cc3ccco3)c(=O)c21, Nc1c(C(=O)Nc2ccc(F)cc2)sc2nc(-c3cccs3)cc(C(F)(F)F)c12, COC(=O)c1ccc(C(=O)OC)c(NC(=O)COC(=O)C2CCCCC2)c1, CCOC(=O)N/N=C\c1ccc(OC(=O)c2ccco2)cc1, COC(CNC(=O)c1cnn2c(C)c(Cc3ccccc3)c(C)nc12)OC, Cc1nc2cc(-c3ccccc3)nn2c(C)c1CCC(=O)N1CCN(c2ccc(F)cc2)CC1, COc1ccc(NC(=O)CC2C(=O)N(c3ccccc3)C(=O)N2CCc2cccs2)cc1 (centres undefined), Fc1cnc(N2CCN(c3ccccc3)CC2)nc1N1CCN(c2ccccc2)CC1, CC1=NN(C(N)=S)C(=O)C1N=Nc1ccccc1 (centres undefined), Oc1ccccc1-c1nc(-c2cccs2)c(-c2cccs2)[nH]1, O=C(c1cnc(N2CCN(c3ncccn3)CC2)c2ccccc12)N1CCN(c2ncccn2)CC1, O=C(/C=C/c1ccco1)N(Cc1cccc(Br)c1)C1CCS(=O)(=O)C1 (centres undefined)

Activity change, negative = displacement, inactive:
C=CCc1cccc(C2C(C)CCC3C(=O)N4C(Cc5c([nH]c6ccccc56)C4c4cc(OC)c(OC)c(OC)c4)C(=O)N32)c1 (centres undefined) -5.01% [at 15.3 µM]
